In PubChem BioAssay AID485297 (National Center for Advancing Translational Sciences (NCATS), 2010):
About 9,100 (2.8%) of roughly 320,000 compounds were called active. Inconclusive results, whose numbers are uncertain, are shown with a selection of clear calls. Calls follow the shape of the dose curve; as a rule, active = well fitted activation curve with a large enough effect; inconclusive = small, poorly fitted or top-dose-only effect; inactive = no such curve, though single readings can be large or run the other way. Potencies of inconclusive entries are left out as doubtful fits.

assay: qHTS Assay for Rab9 Promoter Activators; settings: Huh7 Rab9 promoter-luciferase reporter, luminescence, 24 h; series mostly up to 9.22 µM; also: nearly all actives have a fitted effect of over 60% in size
Outline: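 Luminescence read-out: Huh7 cells stably expressing Rab9-luciferase, treated 24 h with compound at 37 °C, then lysed with luciferase reagent for 10 min at ambient before reading.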
Potency is read from the fitted curve at half-maximal effect; tags tell the direction and shape of the fitted curve.

Compound | Potency
O=C(Nc1ccc(Cl)cc1)c1ccc2ncsc2c1 | active: 3.55 µM
O=[N+]([O-])c1ccc(-c2cn(-c3ccccc3)c(=S)[nH]2)cc1 | inconclusive [activator, full curve, poor fit]
O=C(Nc1nc2cc3c(cc2s1)OCO3)c1ccco1 | active: 0.224 µM
Cc1nc(N2CCN(C(=O)c3ccco3)CC2)c2c3c(sc2n1)CCC3 | inactive
NC(=S)N/N=C/c1ccc2c(c1)OCCO2 | inconclusive [activator, single point]
O=C(CSCc1ccccc1)N/N=C/c1ccc(OCC(=O)N2CCCCC2)cc1 | inconclusive [activator, single point]
Cc1ccc(S(=O)(=O)NC(=O)Nc2ccc(N(C)C)cc2)cc1 | inconclusive [activator, partial curve]
O=C(CCNC(=O)c1ccccc1Cl)Nc1cccc(S(=O)(=O)N2CCCC2)c1 | inactive
COC(=O)c1sc(S(=O)(=O)NCC(=O)O)c(C(=O)OC)c1C | inconclusive [activator, single point]
COc1cccc(OC)c1OCCCOc1cccc2cccnc12 | active: 3.16 µM
Fc1ccc(/C=N/Nc2nnnn2-c2ccccc2)cc1 | inactive
CCC(=O)Nc1ccc(C2C(=O)c3ccccc3C2=O)cc1 | inconclusive [activator, full curve]
Clc1ccccc1-c1nc(-c2ccncc2)no1 | active: 1.26 µM
COC(=O)c1sc(NC(=O)c2ccoc2C)nc1C | inconclusive [activator, partial curve]
Cc1cc(Br)ccc1SCC(=O)N1CCN(S(=O)(=O)c2ccccc2)CC1 | inconclusive [activator, partial curve]
C=CCNC(=O)CN1N=C(c2ccc(C)cc2)CCC1=O | inactive
Cc1ccn2cc(C(=O)Nc3cccc(C(=O)NC4CC4)c3)nc2c1 | inconclusive [activator, partial curve]
Cc1ccc(Nc2nc(N)nc(-c3oc4ccccc4c3C)n2)cc1 | inactive
O=C(CN(C(=O)c1csnn1)c1ccc(F)cc1)NCCc1ccccc1 | inactive
COc1ccc(OCc2cc(C(=O)N3C[C@H]4CC[C@H]3C4)no2)c(Cl)c1 | inconclusive [activator, partial curve]
CCOc1cccc2cc(-c3csc(NC(=O)CCC(=O)NCCN4CCCCC4C)n3)c(=O)oc12 (configuration not stated) | inconclusive [activator, single point]
Cc1ccsc1/C=C(\C#N)C(=O)NC1CCS(=O)(=O)C1 (configuration not stated) | inactive
